Measured values from ChEMBL document CHEMBL4888484, “Replenishing the malaria drug discovery pipeline: Screening and hit evaluation of the MMV Hit Generation Library 1 (HGL1) against asexual blood stage Plasmodium falciparum ,using a nano luciferase reporter read-out” (2022).
Among all 150,000 compounds or so, about 540 (0.36%) showed an effect of 50% or more. This is one part of the list.

The molecules below were run on Plasmodium falciparum (assay: Primary screen in NF54 nanoGlo assay, in single point, at 2uM, 72h; a lower Z score goes with more inhibition). Details: timepoint 72 hour.
Format: functional, Erythrocyte

Row | SMILES | % Inhibition | Z score
1 | CCOC(Cn1cc(C(=O)N[C@@H](C)c2ccc(N3CCOCC3)cc2)nn1)OCC | -10% | 1.6
2 | CN(C)CC1CCN(C(=O)N2CCCCCC2)CC1 | -5% | 0.75
3 | CC(O)CC1COCCN1C(=O)NCCc1ccc(Cl)s1 (stereo unspecified) | -2% | 0.22
4 | CCn1c(CN2CCN(Cc3cc(F)ccc3OC)CC2)nc2cc(S(=O)(=O)N(C)C)ccc21 | -10% | 1.68
5 | O=C(COc1c(F)c(F)c(C(F)(F)F)c(F)c1F)Nc1ccc(Br)cn1 | 3% | -0.36
6 | Cc1noc(COC(=O)C(C)(C)c2cccc(Cl)c2)n1 | -5% | 0.48
7 | CN(C)C[C@@H]1CN(Cc2ccncc2)C[C@H]1NS(=O)(=O)c1ccccc1F | -7% | 1.15
8 | CCc1cc(-c2cnc3ccccc3c2)ccc1NC(C)=O | -3% | 0.33
9 | C[C@H](NCCCn1cccn1)c1ccc(F)cc1N(C)C | -17% | 1.44
10 | CCN(CC)C(=O)N1CCCC(C(=O)NC(c2cccs2)C(C)C)C1 (stereo unspecified) | -6% | 0.71
11 | O=C(Nc1ccc2ncc(Cl)n2c1)c1ccc2c(c1)OCO2 | 5% | -0.53
12 | COCc1nc2n(n1)CC(NC1CCCc3sccc31)CC2 (stereo unspecified) | -13% | 2.06
13 | Cc1nc2nc(-c3ccc(Cl)cc3)nn2c(C)c1CC(=O)NCc1ccccc1 | -5% | 0.81
14 | CO[C@H]1COCC[C@@H]1NC(=O)c1[nH]c2c(F)cccc2c1C | -1% | 0.13
15 | Cc1ccc(C)c(N2CCN(S(=O)(=O)c3cc(-c4nnc(C5CC5)o4)co3)CC2)c1 | 9% | -1.15
16 | CN1CCN(C(=O)CN(CCC(F)(F)F)C2CCCC2)CC1 | -7% | 0.93
17 | CN(Cc1ccccc1)c1nnc(-c2ccccc2)n1C | -6% | 1.22
18 | O=S(=O)(c1cncc(Cl)c1)N1CCOc2ccccc2C1 | -13% | 1.49
19 | Cc1csc([C@@H](C)CNC(=O)Nc2c[nH]c(=O)c(C)c2)n1 | 2% | -0.27
20 | CC1(C)COCN1C(=O)c1cc(OCc2ccccc2)ncn1 | 2% | -0.4
21 | CN1CCN(c2ccc(C(F)(F)F)cc2CN[C@H]2CCCc3[nH]ncc32)CC1 | 4% | -0.67

Row | SMILES | % Inhibition | Z score
22 | CN1N=C(C(=O)N[C@H]2CC(=O)N(CC3CCCCC3)C2)CCC1=O | -15% | 1.94
23 | CCc1ccccc1NC(=O)C1CCN(S(=O)(=O)c2cc3c(cc2C)NC(=O)[C@H](CC)O3)CC1 | 17% | -2.02
24 | CN(Cc1ccoc1)C(=O)NCCS(=O)(=O)N(C)C | -1% | 0.16
25 | CCOCCCC(=O)N(c1cccc(N2CCCC2)c1)C1CCCCCC1 | 4% | -0.74
26 | COc1ccccc1OCC[C@H]1CCN(S(=O)(=O)c2ccccc2C)C1 | -9% | 1.71
27 | CC(C)(C)NC(=O)C1(N(CCc2c[nH]c3ccccc23)C(=O)c2ccccc2)CCCC1 | 30% | -3.42
28 | CCOc1cc(C2C3C(=O)N(c4ccc(Cl)cc4)C(=O)C3ON2c2ccccc2)ccc1OCc1ccccc1 (stereo unspecified) | 4% | -0.51
29 | CCn1ccc(C(=O)N2CCNC(=O)[C@@H](CC(C)C)NC(=O)c3cc(F)ccc3OCCn3cc(nn3)CC2)cc1=O | -10% | 1.28
30 | COc1ccc(CC(=O)N(CC(F)(F)F)[C@@H](C)C2CC2)cc1OC | -4% | 0.55
31 | Cc1ccccc1NC(=O)CC(=O)N1CCNC(=O)[C@@H]1Cc1ccccc1 | 4% | -0.64
32 | Cc1sccc1NC(=O)NCCN1CCO[C@@H](C)C1 | -3% | 0.65
33 | O=C(NCc1ccc(-n2cncn2)nc1)c1ccncc1 | -19% | 1.67
34 | CC(C)c1cc(-c2nc([C@]3(c4ccc(F)cc4)CCOC3)no2)nc(N)n1 | -8% | 1.52
35 | Cc1ccc(NS(=O)(=O)c2ccc(-c3cnc(C4CCCC4)o3)s2)cc1 | -5% | 0.61
36 | CC(C)CNC(=O)C1CN(C(=O)c2cccs2)CC1c1ccc(F)cc1 (stereo unspecified) | -11% | 1.17
37 | CC(NC(=O)c1cccnc1O)C1CCCO1 (stereo unspecified) | -4% | 0.56
38 | Cc1ncc(CN2CCC(CO)(CCCc3ccccc3)CC2)s1 | -34% | 3.02
39 | O=C(Nc1nc2ccccc2s1)C(=O)N1CCC(Cc2ccccc2)CC1 | -14% | 2.17
40 | CC(NC(=O)CN1C(=O)C2CCCN2C(=O)c2ccc(F)cc21)c1ccccc1 (stereo unspecified) | 5% | -0.79
41 | C[C@H](Oc1ccc(-c2ccccc2)c(F)c1)c1ccn(C(=O)c2ccc(F)cc2)n1 | 0% | 0.03
42 | CCN(C)c1ccnc(NCc2cnc3c(c2)CCC3)n1 | -6% | 1

Row | SMILES | % Inhibition | Z score
43 | CN1CCN(C(=O)c2coc(CN(Cc3ccc4c(c3)OCO4)Cc3ccccc3C(F)(F)F)n2)CC1 | -3% | 0.52
44 | CNc1nc(-c2cncnc2)ncc1F | 0% | -0.08
45 | O=C1COc2cc(C(=O)N3CCC3)ccc2N1 | -11% | 1.6
46 | O=C(O)C1C2C=CC(C2)C1C(=O)Nc1cccc2ncccc12 (stereo unspecified) | 34% | -4.93
47 | C[C@@H](C(=O)Nc1ccccc1)N(C)Cc1cnccn1 | 1% | -0.14
48 | O=C(NCc1ccc(Br)cc1)NC1CC2OCCCC12 (stereo unspecified) | -11% | 1.4
49 | CC1(C)C[C@H](c2ccccc2)CN1Cc1c(C(=O)O)oc2ccccc12 | 29% | -3.25
50 | CCCS(=O)(=O)NC[C@H]1CCN(Cc2ccc3nonc3c2)C1 | 0% | 0.02
51 | CC1(C(=O)N2CC(C3CCCC3)C2)CC2CC2C1 (stereo unspecified) | 5% | -0.72
52 | CCOc1ccccc1C(=O)Nc1ccc2c(c1)C(=O)N(C1CCCCC1)C2=O | 1% | -0.11
53 | COc1ccc(OC)c(N2CCN(CC(=O)NCc3ccccc3OC)C2=O)c1 | -6% | 1.11
54 | Cc1ccc(-n2[nH]c(C(=O)NCc3cccc(OCC(F)F)c3)cc2=O)cc1 | -9% | 1.05
55 | CC(C)(C)c1cnc(CNc2ccc(N3CCCC3=O)cc2)o1 | 7% | -1.01
56 | O=C(Cc1cnn(-c2ccccc2)c1)NCCc1ccc(F)cc1 | -5% | 0.94
57 | CC1(C)C[C@@H](CNC(=O)CCc2ccsc2)CCO1 | -3% | 0.45
58 | O=C(NCC1CCCCC1)[C@H]1CCCN(C(=O)c2cccs2)C1 | 3% | -0.44
59 | COC1(CNC(=O)Nc2c(F)cc(F)cc2Cl)CCC1 | -5% | 0.61
60 | CC1CC(C)CN(c2cncc(OCCO)n2)C1 (stereo unspecified) | -16% | 2.41
61 | COCCN1CC2(CCC1=O)CCN(c1nc(C)cc(C3CCC3)n1)CC2 | -10% | 1.14
62 | COc1ccc2cc(C(=O)N3CCC(C(C)C(=O)NCCCN4CCCCC4C)CC3)[nH]c2c1 (stereo unspecified) | -16% | 1.48
63 | O=C(c1ncoc1C1CC1)N(Cc1ccncc1)Cc1ccncc1 | 2% | -0.4

Row | SMILES | % Inhibition | Z score
64 | Cc1ncsc1CCN(C)Cc1cc(=O)n2c3c(cccc13)CCC2 | 11% | -1.5
65 | O=C(Nn1cnnc1)c1csc2c1CCCC2 | -13% | 1.83
66 | CCCCN(C)C(=O)C1CCN(Cc2ccccn2)CC1 | 4% | -0.64
67 | CN(C)c1cc(N2CCC3(CC2)C[C@H](c2ccccc2)C(=O)N3C)ncn1 | 1% | -0.27
68 | COc1ccc(OC)c(S(=O)(=O)Nc2cnn(Cc3ccc(C)cc3)c2)c1 | -13% | 1.75
69 | CCN1CC(=O)N[C@H]2CN(C(=O)CN(C)C)CC[C@@H]2OCc2cccc(c2)Oc2cccc(c2)CC1=O | -5% | 0.97
70 | Cc1nc2c(s1)CCC[C@@H]2Nc1ncccc1C(N)=O | -14% | 1.76
71 | c1nc(N2CCCN(c3ccc4nncn4n3)CC2)c2sccc2n1 | -12% | 1.58
72 | Cc1ccccc1-n1ncc2c1NC(=O)C[C@]21C(=O)N(CC(N)=O)c2ccccc21 | 1% | -0.14
73 | O=C(NCc1ccc2c(c1)OCO2)[C@@H]1CC(c2ccccc2)=NO1 | -9% | 0.77
74 | Cc1cccc(NC(=O)N2Cc3c(C)nn(-c4ccccc4)c3-n3cccc3[C@H]2c2ccccc2)c1 | -8% | 1.52
75 | CC1CCN(CN2C(=O)N[C@](C)(c3ccc(C#N)cc3)C2=O)CC1 | -6% | 0.89
76 | O=C(c1ccc(-c2ccc(Cl)cn2)cc1)N1CCS(=O)(=O)CC1 | -14% | 2.58
77 | NCCn1nc(-c2ccc(F)cc2)n(C2CC2)c1=O | -1% | 0.1
78 | CCN(CCS(=O)(=O)c1ccc(C)cc1)C(=O)c1cc(C(C)C)on1 | 2% | -0.31
79 | CC(C)c1ccc(-n2nc(N3CCN(C(=O)COc4ccc(F)cc4)CC3)ccc2=O)cc1 | 8% | -0.88
80 | Cc1cc(C)nc(-c2nn(C(=O)c3ccccc3)c(=S)o2)n1 | -35% | 4.12
81 | CCCNc1ncc(CN2CCO[C@H](C(N)=O)C2)cn1 | -3% | 0.36
82 | Cc1ccc(S(=O)(=O)N2CCC([C@H](NC(=O)c3ccccc3)C(=O)N3CCCC3)CC2)cc1 | -14% | 1.34
83 | COCCN1CC2(CCC1=O)CCN(C(=O)c1c(Cl)cnn1C)CC2 | -7% | 0.87
